Assay results published in the supplement of paper PMC7125110.
± gives the standard error. This sample is rich in variants without activity.

B1: glmS ribozyme (parent)
chain: AUAAAAGCGCCAGAACUACAGAAAUGUAGUUGACGAGGAGGAGGUUUAUCGAAUUUUCGGCGGAUGCCUCCAAA

Experiments:
Conditions in all cases: with glucosamine-6-phosphate
[1] = variants of: B1; test: kcat; higher = faster cleavage; RNA array
Summary of the method: (§1)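 kcat and KM were obtained from weighted Michaelis–Menten fits across concentrations of kobs values. Those came from one- or two-exponential decay fits to per-tile medians normalised to baseline and to non-cleaving reference variants. The variants were barcoded ribozymes transcribed in situ by E. coli RNA polymerase on sequenced MiSeq chips and tracked through a hybridised Cy3 probe at 37 °C, with 40 μM to 10 mM glucosamine-6-phosphate in HEPES/KCl/Mg(OAc)2 buffer flowed in.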

[2] = variants of: B1; test: self-cleavage kobs at 160 uM GlcN6P; higher = faster cleavage; RNA array
Summary of the method: as §1

[3] = variants of: B1; test: self-cleavage kobs at 40 uM GlcN6P; higher = faster cleavage; RNA array
Summary of the method: as §1

[4] = variants of: B1; test: self-cleavage kobs at 10000 uM GlcN6P; higher = faster cleavage; RNA array
Summary of the method: as §1

[5] = variants of: B1; test: self-cleavage kobs at 640 uM GlcN6P; higher = faster cleavage; RNA array
Summary of the method: as §1

[6] = variants of: B1; test: self-cleavage kobs at 2500 uM GlcN6P; higher = faster cleavage; RNA array
Summary of the method: as §1

| Variant | kcat [1] [s⁻¹] | self-cleavage kobs at 160 uM GlcN6P [2] [s⁻¹] | self-cleavage kobs at 40 uM GlcN6P [3] [s⁻¹] | self-cleavage kobs at 10000 uM GlcN6P [4] [s⁻¹] | self-cleavage kobs at 640 uM GlcN6P [5] [s⁻¹] | self-cleavage kobs at 2500 uM GlcN6P [6] [s⁻¹] |
| --- | --- | --- | --- | --- | --- | --- |
| G63C C68A | < 1e-05 | < 1e-05 | – | – | – | – |
| C11G A52G | < 1e-05 | – | < 1e-05 | < 1e-05 | – | – |
| A14U G35A | < 1e-05 | < 1e-05 | – | – | – | – |
| A6U A14G G62C | – | < 1e-05 | < 1e-05 | < 1e-05 | < 1e-05 | < 1e-05 |
| G29C G38U | < 1e-05 | < 1e-05 | – | – | – | – |
| G35C U56A G59A | < 1e-05 | – | – | – | – | – |
| G35U G37U | < 1e-05 | – | < 1e-05 | < 1e-05 | – | < 1e-05 |
| G38A G66A | < 1e-05 | – | < 1e-05 | < 1e-05 | – | – |
| A15U C61U | < 1e-05 | – | < 1e-05 | < 1e-05 | < 1e-05 | – |
| A36U C71A | < 1e-05 | – | – | – | – | – |
| A6C U65C | – | – | < 1e-05 | – | – | – |
| A6C U65G | – | – | < 1e-05 | – | – | – |
| A6C A12G C34U G35U G37A U46C | – | – | < 1e-05 | – | < 1e-05 | – |
| A6G C34A | – | < 1e-05 | < 1e-05 | < 1e-05 | < 1e-05 | < 1e-05 |
| G35C G37C | < 1e-05 | < 1e-05 | < 1e-05 | – | < 1e-05 | < 1e-05 |
| A6C A42G C68G | – | – | < 1e-05 | – | < 1e-05 | < 1e-05 |
| A6U A14C A39G | – | – | < 1e-05 | – | – | – |
| G29U A52C | < 1e-05 | – | – | – | – | – |
| A6C C61U | – | < 1e-05 | < 1e-05 | < 1e-05 | – | – |
| A14C G37U | < 1e-05 | – | – | – | – | – |
| U54A G62A | < 1e-05 | – | – | < 1e-05 | – | – |
| A33G G60U | < 1e-05 | – | – | < 1e-05 | – | – |
| A12U G35A | < 1e-05 | < 1e-05 | < 1e-05 | < 1e-05 | – | – |
| U57G C61A | < 1e-05 | – | < 1e-05 | – | – | – |

| Variant | kcat [1] [s⁻¹] | self-cleavage kobs at 160 uM GlcN6P [2] [s⁻¹] | self-cleavage kobs at 40 uM GlcN6P [3] [s⁻¹] | self-cleavage kobs at 10000 uM GlcN6P [4] [s⁻¹] | self-cleavage kobs at 640 uM GlcN6P [5] [s⁻¹] | self-cleavage kobs at 2500 uM GlcN6P [6] [s⁻¹] |
| --- | --- | --- | --- | --- | --- | --- |
| A6C G13U | – | < 1e-05 | < 1e-05 | – | < 1e-05 | – |
| A36U A42G | < 1e-05 | – | < 1e-05 | – | < 1e-05 | – |
| A6G A15C | – | – | < 1e-05 | – | – | – |
| A42U G43U | < 1e-05 | – | – | – | – | – |
| A39C G59U | < 1e-05 | – | < 1e-05 | – | – | – |
| A6G G43U | – | < 1e-05 | < 1e-05 | < 1e-05 | < 1e-05 | < 1e-05 |
| C11U C50U | < 1e-05 | < 1e-05 | – | – | – | – |
| A36C G63C | < 1e-05 | – | – | – | < 1e-05 | – |
| A6G G32U | – | – | < 1e-05 | – | – | – |
| A6G A33U C58G C67U C71A | – | 9.68e-05 ± 2.9e-05 | 5.47e-05 ± 2.5e-05 | – | 0.000593 ± 0.00019 | 0.000109 ± 4.9e-05 |
| A6G A52C | – | – | < 1e-05 | < 1e-05 | < 1e-05 | < 1e-05 |
| A6U A42C C70U | – | – | < 1e-05 | – | – | < 1e-05 |
| A6C G38U | – | < 1e-05 | < 1e-05 | < 1e-05 | < 1e-05 | – |
| A33C G62A | < 1e-05 | – | < 1e-05 | < 1e-05 | – | < 1e-05 |
| A6C A52U | – | < 1e-05 | < 1e-05 | < 1e-05 | < 1e-05 | < 1e-05 |
| G62C C67U | < 1e-05 | – | < 1e-05 | – | – | – |
| A6C A36C G44U C50G U55G | – | – | < 1e-05 | – | – | – |
| C10U C16A | < 1e-05 | – | < 1e-05 | – | – | – |
| C10U A12U U31C U54G C67A | < 1e-05 | – | – | – | – | – |
| A1U U2G A3G C8G A12U G63C C68A | – | – | < 1e-05 | – | – | – |
| G38C C67G | < 1e-05 | – | – | – | – | – |
| A6C G35U | – | < 1e-05 | < 1e-05 | < 1e-05 | – | < 1e-05 |
| A6C G35A | – | < 1e-05 | < 1e-05 | < 1e-05 | < 1e-05 | < 1e-05 |
| A42G G51U | < 1e-05 | < 1e-05 | – | < 1e-05 | < 1e-05 | – |
